# According to PubChem BioAssay AID488969 (Vanderbilt High Throughput Screening Facility, 2010):
# In all, about 110,000 compounds were measured (“z-score”: median about -0.1, highest 2% from about 2 on). Some of the results follow.
# Target: Metabotropic glutamate receptor 8 (Rattus norvegicus) (UniProt P70579)
# Test: rat mGluR8 modulators via GIRK flux, primary screen, cell-based, thallium flux, HTS (AID 488969)
# Settings: HEK293 rat mGluR8, GIRK (G protein-gated inwardly rectifying potassium channel) thallium flux, FluoZin2; at 10 µM; stronger effect = higher value; submaximal glutamate (EC20) added with thallium
# Sequence of UniProt P70579 (P70579 whole entry, looked up): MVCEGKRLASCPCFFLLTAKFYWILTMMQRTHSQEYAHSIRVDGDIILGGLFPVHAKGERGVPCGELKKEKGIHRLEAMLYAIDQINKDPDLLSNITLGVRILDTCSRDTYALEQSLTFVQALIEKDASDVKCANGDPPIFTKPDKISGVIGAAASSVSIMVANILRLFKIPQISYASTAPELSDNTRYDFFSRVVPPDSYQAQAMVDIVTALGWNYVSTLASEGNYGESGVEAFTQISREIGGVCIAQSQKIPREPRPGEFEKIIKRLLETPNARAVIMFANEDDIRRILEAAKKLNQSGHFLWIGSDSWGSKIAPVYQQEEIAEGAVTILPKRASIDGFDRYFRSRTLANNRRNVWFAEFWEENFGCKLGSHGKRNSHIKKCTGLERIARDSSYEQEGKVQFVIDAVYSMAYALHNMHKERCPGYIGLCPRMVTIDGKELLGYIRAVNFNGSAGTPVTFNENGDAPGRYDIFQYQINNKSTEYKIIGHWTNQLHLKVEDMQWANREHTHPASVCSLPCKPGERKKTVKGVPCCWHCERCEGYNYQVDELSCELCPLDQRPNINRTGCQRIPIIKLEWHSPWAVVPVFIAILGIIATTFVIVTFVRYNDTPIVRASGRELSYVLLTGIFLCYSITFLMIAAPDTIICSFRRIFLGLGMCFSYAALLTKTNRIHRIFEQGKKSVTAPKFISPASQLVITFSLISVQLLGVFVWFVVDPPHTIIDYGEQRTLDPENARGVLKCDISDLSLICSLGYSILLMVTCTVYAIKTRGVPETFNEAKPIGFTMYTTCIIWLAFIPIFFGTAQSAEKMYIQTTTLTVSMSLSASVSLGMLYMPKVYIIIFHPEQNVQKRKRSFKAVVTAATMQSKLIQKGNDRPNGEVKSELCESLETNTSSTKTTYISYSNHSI
row,Compound,z-score
1,Cc1cccc(-n2nc(C)cc2N)c1,-0.0369
2,COc1cc(-c2nnc(SCC(=O)N(Cc3ccccc3)C(C)(C)C)o2)cc(OC)c1OC,-1.34
3,CCOC(=O)N1CCN(Cc2c(F)cccc2F)CC1,-0.0243
4,COC(=O)c1ccccc1NC(=O)Cn1cnc2c(cnn2-c2ccccc2)c1=O,-0.383
5,COC(=O)c1ccc(COC(=O)c2ccc(CO)cc2)o1,-0.263
6,Cc1ccc2nc3ccc(N4CCN(C)CC4)nn3c(=O)c2c1,0.0225
7,COc1ccc(NC(=O)COc2ccccc2)c(OC)c1,-0.33
8,COc1cccc(/C=C/C(=C2/C(=O)N(c3ccccc3)N=C2C)c2ccc(Br)cc2)c1OC,-0.131
9,c1ccc2oc(NC3=NCN(CC4CCCO4)CN3)nc2c1 (stereo unspecified),0.309
10,Cc1c(NC(=O)C(C)OC(=O)c2cc3c4ccccc4n(C)c3s2)c(=O)n(-c2ccccc2)n1C (stereo unspecified),-0.0764
11,CC(Sc1nnc2ccccn12)C(=O)Nc1ccc(Cl)cn1 (stereo unspecified),-0.0922
12,Cc1ccccc1-c1nc(CS(=O)(=O)CC(=O)NCc2ccc3c(c2)OCO3)c(C)o1,0.146
13,Cc1nc2ccccc2c(=O)n1CCCn1ccnc1,-0.0141
14,CCOC(=O)C1=C(C(F)(F)F)Nc2ncnn2C1c1ccc(OC)cc1OC (stereo unspecified),-0.139
15,Cc1ccc2[nH]c(=O)c(-c3noc(-c4ccncc4)n3)cc2c1,0.141
16,CCN1C(=O)/C(=C2\C=Cc3cc(C)ccc3N2CC)OC1=S,-0.144
17,O=C(Nc1nnc(C(F)(F)F)s1)c1cccnc1,0.616
18,CC(=O)c1sc(NC(=O)c2ccco2)nc1-c1ccccc1,0.0282
19,COC(=O)CSc1nnc(-c2ccc(S(=O)(=O)N3CCCC3)cc2)n1C,-0.234

row,Compound,z-score
1,O=C1c2ccccc2C(=O)N1CSc1nnnn1-c1ccccc1,-0.207
2,O=C(Nc1ccccc1)c1ccc(CN2CCC(Cc3ccccc3)CC2)cc1,0.0784
3,Cc1nnc(NC(=O)CSc2nnc(C)n2Cc2ccccc2)s1,-0.0456
4,CCCOc1ccc(N2C(=O)CC(N3CCN(S(=O)(=O)c4ccccc4)CC3)C2=O)cc1 (stereo unspecified),-0.232
5,CCn1c(C)[n+](CC(O)COCC2CC=CCC2)c2ccccc21 (stereo unspecified),-0.33
6,COC(=O)C1=C(C)N=C2SCCC(=O)N2C1c1ccc(C(=O)OC)cc1 (stereo unspecified),0.676
7,Cc1c(Cl)cccc1NC(=O)CNc1cccc(C(F)(F)F)c1,-0.119
8,O=C(COC(=O)CCCNC(=O)c1ccc(Cl)cc1)NCc1ccccc1Cl,-0.0748
9,CCSc1nnc(NC(=O)c2csc3c2CCC(C)C3)s1 (stereo unspecified),-0.0907
10,Cn1cccc1C(=O)NC(=O)COC(=O)C12CC3CC(CC(O)(C3)C1)C2,-0.235
11,O=S(=O)(NC1CCCCC1)c1ccc(Cl)nc1,-0.0261
12,O=c1cc(NS(=O)(=O)c2ccccc2)nc(SCc2c(Cl)cccc2Cl)[nH]1,0.879
13,COC(=O)C1=C(C(=O)OC)C2(OC1c1ccc(Br)cc1)C(=O)c1ccccc1C2=O (stereo unspecified),0.00915
14,CC(C)C(NC(=O)c1cccs1)C(=O)NC1=NCCS1 (stereo unspecified),0.0706
15,O=C(CCS(=O)(=O)c1cccc2nsnc12)NCc1ccccc1Cl,0.429
16,COc1ccc(/C=N/NC(=O)CC(=O)NCc2cccnc2)c(OC)c1,-0.0683
17,CC1(C)CC(NC(=O)CCc2ccccc2)CC(C)(C)N1,-0.159
18,COc1ccc(CN2CCCC(C(=O)N3CCCC3)C2)cc1 (stereo unspecified),-0.0501
19,Cc1ccc(CNC(=O)CNS(=O)(=O)c2cccc3nsnc23)cc1,1.61

row,Compound,z-score
1,Cc1ccc(C(=O)Nc2ccccc2-c2ccccc2)cc1S(=O)(=O)Nc1cccc(C)c1C,-0.221
2,O=S(=O)(CCSc1nc2ccccc2s1)c1nc2ccccc2s1,0.185
3,CC(=O)Nc1nc2ccc(-c3nc4ccccc4o3)cc2s1,2.69
4,Cc1ccc(NC(=O)c2cccc(N3C(=O)C4C5CCC(C5)C4C3=O)c2)c(C)c1 (stereo unspecified),-0.392
5,CCOc1ccc(C(=O)COC(=O)CC)cc1,-0.159
6,COC(=O)N/N=C(\C)c1ccc(OC(F)F)cc1OC(F)F,-0.297
7,CC(C)CCOC(=O)C1C2C=CC3(CN(Cc4cccs4)C(=O)C13)O2 (stereo unspecified),0.285
8,CSc1nc(C)c2c(n1)N(c1ccc(C(C)C)cc1)CC2,0.43
9,Cc1ccccc1-n1c(C)cc(/C=C2\NC(=O)NC2=O)c1C,0.0101
10,Cn1c(SCC(=O)Nc2ccc3cn[nH]c3c2)nnc1-c1cccs1,-0.291
11,CCC(=O)n1nc(NCc2ccccc2OC)nc1NCc1ccccc1OC,-0.224
12,COc1nc(N=C(N)N)nc2ccc(C)cc12,-0.127
13,Cc1nc2ncnn2c(C)c1CCC(=O)NCCc1ccccc1,-0.181
14,CC(=O)OC1c2ccccc2C(=O)N1Cc1ccccc1 (stereo unspecified),-0.229
15,CNC(=O)CSc1nnnn1CCCOC,0.0742
16,CCN(CC(=O)N1CCN(c2ccccc2)CC1)S(=O)(=O)c1ccc(C)cc1,-0.0364
17,CS(=O)(=O)c1cccc(C(=O)NC(c2ccccc2)c2ccccc2)c1,0.145
18,CSCCC(NS(=O)(=O)c1cccs1)C(=O)NCc1cccs1 (stereo unspecified),0.0942
